Laboratory results as given in PubChem BioAssay (NCI).
“And” between values parts separate entries of the source, which are not always exact repeats. Equal values may be shown once.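 All cell lines were grown in 96-well plates and treated with compound for 48 hours. The concentration for 50% growth inhibition is given as GI50. TGI: total growth inhibition.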 The source made the active and inactive calls.

How the values were obtained:
Assay in all cases: NCI tumour cell line growth inhibition, 48 h
SF-539 CNS = system: SF-539 CNS
EKVX NSCLC = system: EKVX NSCLC
HL-60(TB) leukemia = system: HL-60(TB) leukemia
U251 CNS = system: U251 CNS
A549 NSCLC = system: A549 NSCLC
OVCAR-3 ovarian = system: OVCAR-3 ovarian
KM12 colon = system: KM12 colon
HOP-18 NSCLC = system: HOP-18 NSCLC
SN12C renal = system: SN12C renal
SK-MEL-2 melanoma = system: SK-MEL-2 melanoma
ACHN renal = system: ACHN renal
NCI/ADR-RES ovarian = system: NCI/ADR-RES ovarian
CCRF-CEM leukemia = system: CCRF-CEM leukemia
KM20L2 colon = system: KM20L2 colon
CAKI-1 renal = system: CAKI-1 renal
OVCAR-4 ovarian = system: OVCAR-4 ovarian
HS 578T breast = system: HS 578T breast
IGROV1 ovarian = system: IGROV1 ovarian
HT29 colon = system: HT29 colon
SF-295 CNS = system: SF-295 CNS
OVCAR-5 ovarian = system: OVCAR-5 ovarian
P388 leukemia = system: P388 leukemia
HOP-62 NSCLC = system: HOP-62 NSCLC
BT-549 breast = system: BT-549 breast
NCI-H460 lung = system: NCI-H460 lung
M14 melanoma = system: M14 melanoma
MDA-MB-435 = system: MDA-MB-435
K-562 leukemia = system: K-562 leukemia
SK-MEL-5 melanoma = system: SK-MEL-5 melanoma
DU-145 prostate = system: DU-145 prostate
HCT-15 colon = system: HCT-15 colon
P388/ADR leukemia = system: P388/ADR leukemia
SN12K1 renal = system: SN12K1 renal
NCI-H226 lung = system: NCI-H226 lung
RPMI-8226 leukemia = system: RPMI-8226 leukemia
SR leukemia = system: SR leukemia
SK-MEL-28 melanoma = system: SK-MEL-28 melanoma
UACC-257 melanoma = system: UACC-257 melanoma
UACC-62 melanoma = system: UACC-62 melanoma
786-0 renal = system: 786-0 renal
OVCAR-8 ovarian = system: OVCAR-8 ovarian
UO-31 renal = system: UO-31 renal
MDA-MB-231 breast = system: MDA-MB-231 breast
NCI-H23 lung = system: NCI-H23 lung
DLD-1 colon = system: DLD-1 colon
SNB-75 CNS = system: SNB-75 CNS
COLO 205 colon = system: COLO 205 colon
PC-3 prostate = system: PC-3 prostate
XF 498 CNS = system: XF 498 CNS
MCF7 breast = system: MCF7 breast
SNB-78 CNS = system: SNB-78 CNS
DMS 114 small cell lung = system: DMS 114 small cell lung
HOP-92 NSCLC = system: HOP-92 NSCLC
HCC-2998 colon = system: HCC-2998 colon
SW-620 colon = system: SW-620 colon
LOX IMVI melanoma = system: LOX IMVI melanoma
SF-268 CNS = system: SF-268 CNS
DMS 273 small cell lung = system: DMS 273 small cell lung
MALME-3M melanoma = system: MALME-3M melanoma
MOLT-4 leukemia = system: MOLT-4 leukemia
MDA-N = system: MDA-N
A498 renal = system: A498 renal

COc1cc2c(c(OC)c1OC)-c1ccc(OC)c(=O)cc1[C@@H](N)CC2 was tested, and the GI50 (SF-539 CNS) was 24.8 nM and 31 nM, the TGI (SF-539 CNS) was 186 nM and 46 nM and 78.1 nM and the GI50 (EKVX NSCLC) was 25 nM. For the same molecule, the TGI (EKVX NSCLC) was greater than 250 µM, the GI50 (HL-60(TB) leukemia) was 21.8 nM and 25 nM and the TGI (HL-60(TB) leukemia) was 57 nM and 41.4 nM. For the same molecule, the GI50 (U251 CNS) was 43 nM and 35.3 nM, the TGI (U251 CNS) was 8.33 µM and 17.5 µM and the GI50 (A549 NSCLC) was 36.6 nM and 34.2 nM. For the same molecule, the TGI (A549 NSCLC) was greater than 250 µM, the GI50 (OVCAR-3 ovarian) was 49.9 nM and 25 nM and the TGI (OVCAR-3 ovarian) was 21.8 nM and 38.4 nM. For the same molecule, the GI50 (KM12 colon) was 65.4 nM and 19.5 nM and 25 nM, the GI50 (HOP-18 NSCLC) was “inactive” and the TGI (HOP-18 NSCLC) was greater than 250 µM. For the same molecule, the GI50 (SN12C renal) was 48.5 nM and 50.7 nM, the TGI (SN12C renal) was 110 µM and the TGI (SK-MEL-2 melanoma) was 988 nM and 1980 nM and 423 nM. For the same molecule, the GI50 (ACHN renal) was 88.4 nM, the GI50 (NCI/ADR-RES ovarian) was “inactive” and the TGI (NCI/ADR-RES ovarian) was 1100 nM and 1980 nM. For the same molecule, the GI50 (CCRF-CEM leukemia) was 39.1 nM and 132 nM and 25 nM, the TGI (CCRF-CEM leukemia) was 59.6 µM and the GI50 (KM20L2 colon) was 25 nM. The TGI (KM20L2 colon) was 43.2 nM and 25 nM, the GI50 (CAKI-1 renal) was 29.3 nM and the TGI (OVCAR-4 ovarian) was 243 µM. For the same molecule, the TGI (HS 578T breast) was 3.66 µM, the GI50 (IGROV1 ovarian) was 95.1 nM and the TGI (IGROV1 ovarian) was greater than 250 µM. The GI50 (HT29 colon) was 27.5 nM and 12 nM and 25 nM, the GI50 (SF-295 CNS) was 28.1 nM and 12.3 nM and 28 nM and the TGI (SF-295 CNS) was 64.8 nM and 123 nM and 38.9 nM. For the same molecule, the GI50 (OVCAR-5 ovarian) was “inactive”, the TGI (OVCAR-5 ovarian) was greater than 250 µM and the TGI (P388 leukemia) was 5.55 µM. For the same molecule, the GI50 (HOP-62 NSCLC) was 49.9 nM and 54.4 nM, the TGI (HOP-62 NSCLC) was greater than 250 µM and the TGI (BT-549 breast) was 679 nM. For the same molecule, the GI50 (NCI-H460 lung) was 37 nM and 30.1 nM, the TGI (NCI-H460 lung) was 29.6 µM and 19.4 µM and the GI50 (M14 melanoma) was 63.4 nM and 15.5 nM. The TGI (M14 melanoma) was 10.6 µM, the GI50 (MDA-MB-435) was 8.49 nM and the TGI (MDA-MB-435) was 23.8 nM and 27.1 nM. The GI50 (K-562 leukemia) was 38 nM and 32.7 nM, the TGI (K-562 leukemia) was 82.1 µM and 61.2 µM and the GI50 (SK-MEL-5 melanoma) was 31.2 nM and 15.9 nM and 25 nM. The GI50 (DU-145 prostate) was 45.9 nM, the TGI (DU-145 prostate) was 273 nM and 93.4 nM and the GI50 (HCT-15 colon) was 60.4 nM and 61.8 nM. The TGI (HCT-15 colon) was 38.2 µM and 7.13 µM, the TGI (P388/ADR leukemia) was 11.8 µM and the TGI (SN12K1 renal) was 25 nM. The GI50 (NCI-H226 lung) was 33.8 nM, the GI50 (RPMI-8226 leukemia) was 47 nM and 35.7 nM and the TGI (RPMI-8226 leukemia) was 74.6 µM and 116 µM. The GI50 (SR leukemia) was 54.6 nM, the TGI (SK-MEL-28 melanoma) was greater than 250 µM and the TGI (UACC-257 melanoma) was 81.6 µM and > 250 µM. The GI50 (UACC-62 melanoma) was 25.7 nM, the TGI (UACC-62 melanoma) was 43.9 µM and 6.65 µM and the GI50 (786-0 renal) was 43 nM. The GI50 (OVCAR-8 ovarian) was 42.3 nM, the TGI (OVCAR-8 ovarian) was 15 µM and 2.54 µM and the GI50 (UO-31 renal) was 343 nM. The TGI (UO-31 renal) was 240 µM, the GI50 (MDA-MB-231 breast) was 35 nM and the TGI (MDA-MB-231 breast) was 874 nM. The GI50 (NCI-H23 lung) was 67.5 nM and 22.3 nM and 25 nM, the TGI (NCI-H23 lung) was 4.51 µM and 16.4 µM and the GI50 (DLD-1 colon) was 35.2 nM and 34.2 nM. The TGI (DLD-1 colon) was greater than 250 µM, the GI50 (SNB-75 CNS) was 28.8 nM and 25 nM and the TGI (SNB-75 CNS) was 115 nM. For the same molecule, the GI50 (COLO 205 colon) was 47.8 nM and 55.8 nM and 25.1 nM, the TGI (COLO 205 colon) was 175 nM and 138 nM and 68.4 nM and the TGI (PC-3 prostate) was 22.2 µM. For the same molecule, the GI50 (XF 498 CNS) was 39 nM and 25 nM, the GI50 (MCF7 breast) was 34.3 nM and 25 nM and the TGI (MCF7 breast) was 167 µM. For the same molecule, the GI50 (SNB-78 CNS) was 14.9 nM and 43.2 nM, the TGI (SNB-78 CNS) was greater than 250 µM and the TGI (DMS 114 small cell lung) was 103 nM and 87 nM. For the same molecule, the GI50 (HOP-92 NSCLC) was 142 nM and 25 nM, the TGI (HOP-92 NSCLC) was 28.6 nM and the GI50 (HCC-2998 colon) was 25.8 nM and 25 nM. For the same molecule, the GI50 (SW-620 colon) was 36.7 nM and 44.5 nM, the TGI (SW-620 colon) was greater than 250 µM and the GI50 (LOX IMVI melanoma) was 66 nM. The TGI (LOX IMVI melanoma) was 79.9 µM, the GI50 (SF-268 CNS) was 62.4 nM and 54.9 nM and the TGI (SF-268 CNS) was greater than 250 µM. For the same molecule, the GI50 (DMS 273 small cell lung) was < 10 nM and 25 nM, the TGI (DMS 273 small cell lung) was 73.2 nM and the GI50 (MALME-3M melanoma) was 85.1 nM and 25 nM. The TGI (MALME-3M melanoma) was 99.4 µM and > 250 µM, the GI50 (MOLT-4 leukemia) was 25 nM and the TGI (MOLT-4 leukemia) was 52.3 µM and 11.6 µM. The GI50 (MDA-N) was 12.5 nM and < 10 nM, the TGI (MDA-N) was 37.6 nM and 311 nM and the GI50 (A498 renal) was 28.8 nM.
